Measurements published in PubChem BioAssay AID651820 (National Center for Advancing Translational Sciences (NCATS), 2012).
Out of some 340,000 compounds screened, about 12,000 (3.5%) were called active. Inconclusive means that the source gave no clear call. Such entries were picked first, then a sample of the others. Calls come from the whole dose curve; as a rule, active = well fitted inhibition curve with a large enough effect; inconclusive = small, poorly fitted or top-dose-only effect, or another doubt; inactive = no such curve, though single readings can be large or run the other way. No potency is given beside an inconclusive call; the fits are too rough.

Experiment: qHTS Assay for Inhibitors of Hepatitis C Virus (HCV)
Conditions: Huh7.5.1 HCVcc-Cre (HCVcc is cell-culture hepatitis C virus) infection, luciferase reporter, 44 h; activity change, negative = inhibition: at 41.8 µM (top of the series)
In short: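 HCVcc-Cre virus at an moi near 0.5 was added right after compound to cells cultured 4 h from seeding (1,000 cells/well). Luciferase activity was determined 44 h later, 15 min after substrate addition at RT.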
% is set by controls: 0 for no effect and ±100 for the full control effect; potency is the fitted concentration of half-maximal effect; tags give direction and shape of the fitted curve.

SMILES | activity change, negative = inhibition | Potency
Cc1c(CN2CC[C@@H](N3CCN(c4ccccn4)CC3)[C@H](O)C2)[nH]c2ccc(F)cc12 | inactive: -28.5% | 
N=c1ccn(Cc2ccc(Cl)cc2Cl)cc1 |  | active: 2.82 µM
COc1ccc(C2=CC(=O)C[C@H](c3ccc4c(c3)OCO4)C2)cn1 |  | inconclusive [inhibitor, partial curve]
COc1ccc(CCc2nnc(CCC(=O)N(C)Cc3ccnc4ccccc34)o2)cc1 |  | inconclusive [inhibitor, full curve]
CN1CCN(C2=NC(=O)/C(=C/c3cn[nH]c3-c3ccccc3)S2)CC1 |  | inconclusive [inhibitor, single point]
CCC(Sc1nnc(-c2ccc(C)c(Cl)c2)n1CC)C(=O)Nc1nccs1 (stereo not given) |  | inconclusive [inhibitor, single point]
CC(=O)c1cccc(NC(=O)CSc2nc(N3CCOCC3)nc(N3CCOCC3)n2)c1 |  | inconclusive [inhibitor, partial curve, poor fit]
O=C(/C=C/Sc1ccccc1)c1ccccc1 |  | inconclusive [inhibitor, partial curve, poor fit]
Cc1cccc2nc3ccccc3cc12 | inactive: -25.2% | 
CCc1ccc(-c2csc3ncn(CC(=O)NCc4ccco4)c(=O)c23)cc1 |  | inconclusive [inhibitor, single point]
COc1cc2c(cc1NC(=O)CN(C)Cc1cccc(OC)c1OC)oc1ccccc12 |  | active: 3.55 µM
CCN(CC)c1ccc(NC(=O)COc2ccccc2C#N)cc1S(=O)(=O)Nc1ccc(OC)cc1 |  | inconclusive [inhibitor, partial curve, poor fit]
CCOc1ccc(CC2S/C(=N/N=C/c3ccco3)NC2=O)cc1 (stereo not given) | inactive: 20.9% | 
CCC(=Cc1ccccc1O)c1ccncc1 | inactive: -21.5% | 
COC(=O)C1=C(C)N(CC2CC2)C(=NCc2cccc(C(F)(F)F)c2)N[C@H]1c1ccccc1 |  | inconclusive [inhibitor, single point]
COC(=O)C1=C(CSc2nc3ccccc3o2)NC(=O)NC1c1cc(C)ccc1C (stereo not given) |  | inconclusive [inhibitor, single point]
CCOc1cc(NC(=O)C2CC2)c(OCC)cc1NC(=O)c1ccccc1OCC |  | inconclusive [inhibitor, full curve]
COP(C)(=O)c1c(C)nn(-c2ccccc2)c1C (stereo not given) |  | inconclusive [inhibitor, single point]
Oc1ccc(CN2CCCc3ccccc32)c2cccnc12 |  | active: 10 µM
Fc1ccc(-c2nnc3sc(C4COc5ccccc5O4)nn23)cc1 (stereo not given) |  | inconclusive [inhibitor, single point]
CCOC(=O)c1ccc(N2CSC3=C(C#N)C(c4cccs4)CC(=O)N3C2)cc1 (stereo not given) | inactive: 2.9% | 
CCN1C(=O)c2ccccc2Sc2ccc(C(=O)NCCCN3CCCCC3)cc21 |  | inconclusive [inhibitor, single point]
C=CCN(CC=C)C(=S)Nc1ccccc1 | inactive: 22.8% | 

SMILES | activity change, negative = inhibition | Potency
CC(=O)c1c(C)[nH]c(C(=O)OCc2c(F)cccc2Cl)c1C |  | active: 10 µM
CCOCCCN(C(=O)c1ccco1)C(C(=O)NC1CCCC1)c1ccc(OC)cc1 (stereo not given) | inactive: 21.3% | 
COc1ccc(C(CNC(=O)c2cccn2C)N2CCOCC2)cc1 (stereo not given) |  | inconclusive [inhibitor, single point]
CN(C)/C=C1\Oc2ccc3ccccc3c2C1=O |  | inconclusive [inhibitor, full curve]
CC(=O)Nc1ccc(S(=O)(=O)N[C@@H](C)C(=O)N2CCN(C/C=C/c3ccccc3)CC2)cc1 |  | inconclusive [inhibitor, single point]
COc1ccc(-c2[nH]ncc2CN2CCC(O)(c3ccc(Cl)cc3)CC2)cc1 |  | inconclusive [inhibitor, partial curve, poor fit]
Nc1c(C(=O)N/N=C/c2ccccc2)cnn1-c1ccccc1 | inactive: -19.4% | 
COc1ccc(N/N=C(/C(C)=O)N2CCCc3ccccc32)cc1 | inactive: -58% | 
O=C(NCCc1ccc(Cl)cc1)C1CCC(CNc2nc(=S)[nH]c3ccccc23)CC1 (stereo not given) |  | active: 11.2 µM
CCC(C(=O)OC)n1cnc2scc(-c3ccc(C)c(C)c3)c2c1=O (stereo not given) |  | inconclusive [inhibitor, single point]
Cc1cc(N2O[C@]34C=C[C@]25C[C@@H](O)CC[C@]5(C)C3CC[C@]2(C)[C@@H]([C@H](C)/C=C/[C@H](C)C(C)C)CC[C@H]24)no1 (stereo not given in full) |  | inconclusive [inhibitor, single point]
COc1cc(C(=S)N2CCCC2)cc(Cl)c1OCC(=O)Nc1ccc(C)cc1C |  | inconclusive [inhibitor, single point]
CNC(=O)Oc1ccc(-c2cn3cc(Cl)ccc3n2)cc1 |  | inconclusive [inhibitor, partial curve]
COc1ccc(F)cc1S(=O)(=O)NC1CCCC1 |  | inconclusive [inhibitor, single point]
NNC(=O)c1cccc(COc2ccc3c(c2)CCC3)c1 | inactive: 0.0496% | 
CC1CN(S(=O)(=O)c2cccc(C(=O)NCc3ccc4c(c3)OCO4)c2)CC(C)O1 (stereo not given) |  | inconclusive [inhibitor, single point]
CC(C)Oc1ccc(CNC(=O)Cn2ccc3cc(S(=O)(=O)N4CCCC4)ccc32)cc1 | inactive: -5.73% | 
CC(=O)Oc1c(Cl)cc(N(C(C)=O)S(=O)(=O)c2ccccc2)c2ccccc12 |  | inconclusive [inhibitor, single point]
O=C(N/N=C/c1ccncc1)c1cc(-c2ccc(Br)s2)[nH]n1 | inactive: 10.7% | 
O=C(Nc1ccc(NC(=O)c2ccccc2Br)cc1)c1ccccc1 | inactive: -25.5% | 
O=C(CCNc1cccc(C(F)(F)F)c1)c1ccco1 |  | inconclusive [inhibitor, single point]
CCC1CSC(Nc2ccc(C(=O)/C=C/c3ccc(Br)cc3)cc2)=N1 (stereo not given) |  | inconclusive [inhibitor, single point]
